From PubChem BioAssay AID686971 (National Center for Advancing Translational Sciences (NCATS), 2013)
The campaign covered roughly 360,000 compounds. About 7,500 (2.1%) were called active. The shares of active, inactive and inconclusive entries below differ from those in the screen. Calls follow the shape of the dose curve; as a rule, active = well fitted cell-killing curve with a large enough effect; inconclusive = small, poorly fitted or top-dose-only effect, or effect the other way, or another doubt; inactive = no such curve, though single readings can be large or run the other way. No potency is given beside an inconclusive call; the fits are too rough.

Assay: qHTS for induction of synthetic lethality in tumor cells producing 2HG: qHTS for the HT-1080-IDH1KD cell line;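 as to activity, negative = toxicity: 0% = DMSO wells and -100% = cell-free medium wells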
Conditions: HT-1080 IDH1 knockdown viability, ATP luminescence, 48 h; activity, negative = toxicity: at 46.1 µM (top of the series) unless noted
Summary of the method: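 Using the IDH1-knockdown HT-1080 line run in the same batch and compound series as the NT line, viability after 48 h at 37 °C was determined by CellTiter-Glo luminescence and expressed as % activity.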
Potency is read from the fitted curve at half-maximal effect; tags tell the direction and shape of the fitted curve.

Compound	Potency	activity, negative = toxicity
CCOC(=O)C1CCN(C(=O)c2cc(-c3ccncc3)nc3ccccc23)CC1	inactive	–
Cc1cc(C)cc(N=Cc2ccc([N+](=O)[O-])s2)c1	active: 20.6 µM	–
COc1ccc(OC)c(S(=O)(=O)N2CCCC(C(=O)N3CCCCCC3)C2)c1 (centres undefined)	inactive	–
C/C(=N\Nc1cccc([N+](=O)[O-])c1)c1ccccc1O	inconclusive [cytotoxic, partial curve]	–
Cc1ccc2ccc(C(Nc3ccccc3)c3ccc(C(C)C)cc3)c(O)c2n1 (centres undefined)	inconclusive [cytotoxic, partial curve]	–
Cc1cc(=O)oc2cc(OCC(=O)Nc3ccc(N4CCC(C)CC4)cc3)ccc12	inconclusive [cytotoxic, single point]	–
CC1(C)Cc2c(ccc3ccccc23)/C(=C/C(=O)N2CCCCC2)N1	inconclusive [cytotoxic, single point]	–
CCn1cc(CN2CCCC(C(=O)Nc3cccc(-n4cccn4)c3)C2)c(C)n1 (centres undefined)	inactive	–
CC(C)c1ccc(OCC(=O)N(Cc2ccco2)C2CCS(=O)(=O)C2)cc1 (centres undefined)	inactive	–
COc1ccc(CNC(=O)[C@@H](C)NC(=O)C2CCN(C(=O)[C@@H](N)CCSC)CC2)cc1	inconclusive [cytotoxic, single point]	–
CCc1nc2c(OCCC3CCCCC3)cccn2c1N(C)C(=O)c1cccs1	inconclusive [cytotoxic, single point]	–
Fc1ccc2[nH]c3c(NCc4ccccc4)ncnc3c2c1	inconclusive [cytotoxic, partial curve]	–
Cc1cccc(NS(=O)(=O)c2cccc(C(=O)N3CCC3)c2)c1	inactive	–
COc1ccccc1/C=C/CN1CCCC(CCC(=O)NCc2ccc(F)c(F)c2)C1 (centres undefined)	inconclusive [cytotoxic, single point]	–
CCOC(=O)C1=C(CSc2nc(C)cc(C)c2C#N)OC(N)=C(C#N)C1c1ccccc1 (centres undefined)	inactive	–
COc1cc(NC(C)=O)ccc1NC(=O)c1cc2ccccc2o1	inactive	–
CN1CCN(C(=O)CCN2C(=O)/C(=C/c3cccc(Br)c3)SC2=S)CC1	inconclusive [cytotoxic, single point]	–
CC(=O)Cc1nsc(NC(=O)c2ccc(COc3ccccc3Cl)o2)n1	inconclusive [cytotoxic, partial curve]	–
Cc1cccc(Cn2cc(/C=C/[N+](=O)[O-])c3ccccc32)c1	active: 23.1 µM	–
CSc1cccc(NC(=S)N(CCCN2CCCC2)Cc2cccn2Cc2ccc(Cl)cc2)c1	inconclusive [cytotoxic, single point]	–
COc1cccc(OC)c1C(=O)N1CCN(Cc2ccccc2C(F)(F)F)CC1	inactive	–
COc1cccc(C(=O)Nc2ccc(Oc3cccc(C(F)(F)F)c3)nc2)c1	inconclusive [cytotoxic, single point]	–
Cc1cc(C(=O)N2CCN(c3ccccc3)CC2)c(C)o1	inconclusive [cytotoxic, single point]	–

Compound	Potency	activity, negative = toxicity
COc1ccc(CN2C(=O)CN=C2Nc2cc(C)ccc2C)cc1	inconclusive [cytotoxic, single point]	–
O=S(=O)(Cc1cc(Cl)nc(-c2ccncc2)n1)c1ccccc1	inconclusive [cytotoxic, single point]	–
O=c1oc2ccccc2c(O)c1C=Nc1cccnc1	inconclusive [cytotoxic, partial curve, poor fit]	–
Cc1ccccc1NC(=O)CSC1=C(C#N)C(c2ccsc2)CC(=O)N1 (centres undefined)	inconclusive [cytotoxic, single point]	–
COc1ccc(-c2nc3ccc(C)cn3c2Cc2ccsc2)cc1OC	inconclusive [cytotoxic, single point]	–
Cc1cccc(NC(=O)Nc2ccc(OCc3ccccc3)cc2)n1	inconclusive [cytotoxic, single point]	–
Cc1ccc(NC(=O)CSc2nnc(C3CC3)n2N)cc1S(=O)(=O)N1CCOCC1	inactive	–
CC(Oc1ccccc1Cl)C(=O)/C=C/N(C)C (centres undefined)	inconclusive [cytotoxic, single point]	–
COc1ccccc1Cn1c(C)c(C(=O)NCc2cccc(C)c2)sc1=O	inactive	–
O=C1C=C(c2ccc3c(c2)oc2ccccc23)C[C@@H](c2ccc3c(c2)OCO3)C1	inactive	–
CCN(CC)c1ccc(C(=C2C=CC(=[N+](CC)CC)C=C2)c2ccccc2)cc1	active: 1.03 µM	–
Nn1c(-c2cccs2)nc2sc3c(c2c1=O)CCCC3	inconclusive [cytotoxic, single point]	–
COc1ccc(NC(=O)c2nc(C)c(C3(C)CC(c4ccccc4)=NO3)s2)cc1 (centres undefined)	inconclusive [cytotoxic, full curve]	–
CC(=O)N1CCOc2ccc(S(=O)(=O)N3CCC(C)CC3)cc21	inactive	–
CC(=O)c1cccc(-c2cnc3c(NC=O)cc(-c4ccc(F)cc4)cn23)c1	inconclusive [cytotoxic, single point]	–
O=C(NCc1ccco1)C1CC(c2cccc([N+](=O)[O-])c2)=NO1 (centres undefined)	inconclusive [cytotoxic, single point]	–
CC(C)=CCC/C(C)=C/CNC(=O)C[C@H]1C[C@H](C(=O)N2CCOCC2)[C@@]2(CCC3CCCC3)c3[nH]c4cc(-c5ccco5)ccc4c3CCN2C1=O	inactive	–
O=C(Nc1ccc(N2CCN(c3ncccc3C(F)(F)F)CC2)nc1)c1cccs1	active: 20.6 µM	–
CCc1ccc2[nH]c(=O)c(CN(Cc3ccco3)C(=S)NCC3CCCO3)cc2c1 (centres undefined)	inactive	–
COc1ccc(C#Cc2c(-c3ccccc3)n(C)c3ccccc23)cc1	inconclusive [cytotoxic, single point]	–
O=C(c1cccc([N+](=O)[O-])c1)N1CCCN(C(=O)c2cccc([N+](=O)[O-])c2)CC1	inactive	–
C[C@H]1CN([C@@H](C)CO)C(=O)c2cccc(NC(=O)Nc3ccc(C(F)(F)F)cc3)c2O[C@@H]1CN(C)S(=O)(=O)c1ccc(Cl)cc1	active: 25.9 µM	–
O=C1N[C@@H](Cc2ccccc2)COC(=O)[C@H](Cc2ccc(F)cc2)C/C=C\C[C@H]1CC(=O)N(CCO)Cc1ccccc1	inconclusive [cytotoxic, single point]	–

Compound	Potency	activity, negative = toxicity
O=C(O)CCN1C(=O)c2ccccc2Sc2ncccc21	inactive	–
Cc1ccc(S(=O)(=O)N2Cc3ccccc3CC2C(=O)N(C)C)cc1 (centres undefined)	inactive	–
CCC(=O)N1c2ccc(S(=O)(=O)NCc3ccccc3)cc2CC1C (centres undefined)	inactive	–
CCN(CC)c1ccc(NC(=O)Cn2ncc3c(C)n(Cc4ccccc4F)c(C)c3c2=O)c(C)c1	inactive	–
CC(=O)N(C(C)=O)c1cccc(N(Cc2ccccc2)Cc2ccccc2)c1	inconclusive [cytotoxic, partial curve]	–
O=C(NC1CCCCC1)C(c1ccncc1)n1c(=O)c(-c2cc3ccccc3[nH]2)nc2ccccc21 (centres undefined)	inconclusive [cytotoxic, single point]	–
N#Cc1ccc(/C=C/C(=O)c2ccc3c(c2)OCO3)cc1	inconclusive [cytotoxic, single point]	–
CCN(CC)CCCN(C(=O)c1ccc(Br)cc1)c1nc(-c2ccc(OC)cc2)cs1	inconclusive [cytotoxic, single point]	–
COc1ccc(/C(C)=N/OCC(=O)N=Nc2c(O)[nH]c3ccc(Br)cc23)cc1	inconclusive [rising, partial curve]	–
C[C@]12c3[nH]c4ccccc4c3CCN1C(=O)C(CC(=O)NCc1cccc(C(F)(F)F)c1)C[C@@H]2C(=O)N1CCCCC1 (some centres undefined)	inconclusive [cytotoxic, single point]	–
CCN(CC)c1ccc(-c2sc(Nc3ccccc3)n[n+]2-c2ccc(F)cc2)cc1	inconclusive [cytotoxic, single point]	–
COc1ccccc1-n1cc(-c2ccccc2)c2c(=S)nc[nH]c21	–	inconclusive: 0% [cytotoxic]
O=C(Nc1nc(-c2ccccc2)cs1)C1CCCN(S(=O)(=O)c2ccccc2)C1 (centres undefined)	inconclusive [cytotoxic, full curve]	–
COc1ccc(S(=O)(=O)NCCCc2ccccc2)cc1	inactive	–
CCOC(=O)Cc1csc(NC(=O)c2c(O)c3ccccc3n(CC(C)C)c2=O)n1	inactive	–
COc1ccc(C(=O)c2cc([N+](=O)[O-])ccc2N2CCN(C)CC2)cc1	active: 5.17 µM	–
CCOc1cc([C@@H]2C[C@H]3CN(c4ccccc4)C(=O)[C@]34CCCN24)ccc1OC	inconclusive [cytotoxic, partial curve]	–
COc1ccc(-c2cc(C(F)(F)F)n3ncc(C(=O)N(C)Cc4ccccc4)c3n2)cc1	inconclusive [cytotoxic, partial curve]	–
CN(C)S(=O)(=O)c1cccc(NC(=O)CN2C(=O)NC(Cc3ccccc3)C2=O)c1 (centres undefined)	inactive	–
Cc1ccc(Cl)cc1NC(=S)N(CCCN1CCN(C)CC1)Cc1cccs1	inconclusive [cytotoxic, partial curve]	–
CN(Cc1ccc(F)cc1)Cc1nc(-c2cnccn2)no1	inactive	–
CCc1ccc(/C=N/NC(=O)c2cc(C3CC3)nc3ccc(Br)cc23)s1	active: 5.8 µM	–
COc1ccc(-c2nnc(SCC(=O)Nc3ncc(C)s3)n2-c2ccccc2)cc1OC	inconclusive [cytotoxic, partial curve]	–
